Reference: article PMC11995724, “Antibiotic target discovery by integrated phenotypic and activity-based profiling of electrophilic fragments” (Cell chemical biology, 2025)
Hit rate of the full screen: of about 3,200 compounds, about 110 (3.4%) showed an effect of 50% or more. The list shows a part of the results.

These molecules were tested on T1, V. cholerae SAD30. Conditions: relative growth, OD600, LB; 25 µM; inhibitor.
T1 construct: SAD30
Set-up: species or system S. aureus MSSA476 (TSB) or V. cholerae SAD30 (LB); 384-well bacterial growth screen at 25 uM, OD600 relative to DMSO control

Structure (SMILES)	% of control remaining [%]
CC(Cl)C(=O)N1CCN(Cc2ccnn2C)CC1 (centres unmarked) [7-I22, 2-chloro-1-{4-[(1-methyl-1H-pyrazol-5-yl)methyl]piperazin-1-yl}propan-1-one]	88.9476
N#CC(=Cc1ccco1)C(=O)NS(=O)(=O)c1cccc2cnccc12 [9-H20, 2-cyano-3-(furan-2-yl)-N-(isoquinoline-5-sulfonyl)prop-2-enamide]	87.6275
CC(Cl)C(=O)Nc1ccc(S(=O)(=O)N2CCCC2)cc1 (centres unmarked) [6-M13, 2-chloro-N-[4-(pyrrolidine-1-sulfonyl)phenyl]propanamide]	90.7005
C=CC(=O)NCCc1ccc(S(C)(=O)=O)cc1 [2-A14, N-[2-(4-methanesulfonylphenyl)ethyl]prop-2-enamide]	89.5783
CC(Cl)C(=O)NCCc1nnc(C(C)C)s1 (centres unmarked) [7-E03, 2-chloro-N-{2-[5-(propan-2-yl)-1,3,4-thiadiazol-2-yl]ethyl}propanamide]	92.2518
C=CC(=O)NCc1nc(C(C)(C)O)n[nH]1 [2-E15, N-{[3-(2-hydroxypropan-2-yl)-1H-1,2,4-triazol-5-yl]methyl}prop-2-enamide]	92.8206
CC(Cl)C(=O)N1CCN(C(C)c2cccc(C#N)c2)CC1 (centres unmarked) [7-P22, 3-{1-[4-(2-chloropropanoyl)piperazin-1-yl]ethyl}benzonitrile]	96.7454
Cc1cc(N(CCC#N)C(=O)CCl)ccc1Cl [4-K15, 2-chloro-N-(4-chloro-3-methylphenyl)-N-(2-cyanoethyl)acetamide]	98.6845
C=CC(=O)Nc1nc(Cc2ccccc2)c(C)s1 [1-B16, N-(4-benzyl-5-methyl-1,3-thiazol-2-yl)prop-2-enamide]	87.0952
Cc1ccc(NC(=O)C(C#N)=Cc2ccsc2)c(C)c1 [9-M19, 2-cyano-N-(2,4-dimethylphenyl)-3-(thiophen-3-yl)prop-2-enamide]	88.1713
N#CC(=Cc1ccccc1O)C(=O)Nc1cccc2ncccc12 [9-G04, 2-cyano-3-(2-hydroxyphenyl)-N-(quinolin-5-yl)prop-2-enamide]	94.6975
COCc1noc(CN2CCN(C(=O)C(C)Cl)CC2)n1 (centres unmarked) [7-I06, 2-chloro-1-(4-{[3-(methoxymethyl)-1,2,4-oxadiazol-5-yl]methyl}piperazin-1-yl)propan-1-one]	83.2645
CC(Cl)C(=O)NCc1conc1C1CCC1 (centres unmarked) [5-L21, 2-chloro-N-[(3-cyclobutyl-1,2-oxazol-4-yl)methyl]propanamide]	101.713
N#CC(=Cc1cc2c(cc1[N+](=O)[O-])OCO2)C(=O)NC1CCCCC1 [8-F22, 2-cyano-N-cyclohexyl-3-(6-nitro-1,3-dioxaindan-5-yl)prop-2-enamide]	83.6846
C=CC(=O)Nc1cc(-c2ccco2)nn1C(C)(C)C [1-K19, N-[1-tert-butyl-3-(furan-2-yl)-1H-pyrazol-5-yl]prop-2-enamide]	90.1345
CC(C)C(NC(=O)CCl)c1ccc(Cl)cc1F (centres unmarked) [7-J22, 2-chloro-N-[1-(4-chloro-2-fluorophenyl)-2-methylpropyl]acetamide]	94.8951
C=CC(=O)N1CCC(C(=O)N[C@H]2CCO[C@@H]2c2cccnc2)CC1 (racemic) [2-G20, rac-1-(prop-2-enoyl)-N-[(2R,3S)-2-(pyridin-3-yl)oxolan-3-yl]piperidine-4-carboxamide]	97.2981
N#CC(=Cc1ccco1)C(=O)Nc1cccc2ncccc12 [8-B20, 2-cyano-3-(furan-2-yl)-N-(quinolin-5-yl)prop-2-enamide]	75.7988
CC(Cl)C(=O)N1CCn2c(cc3c(Cl)cccc32)C1 (centres unmarked) [7-D17, 2-chloro-1-{9-chloro-1H,2H,3H,4H-pyrazino[1,2-a]indol-2-yl}propan-1-one]	54.3202
N#CC(=Cc1cccs1)C(=O)Nc1cccc2ccccc12 [9-M22, 2-cyano-N-(naphthalen-1-yl)-3-(thiophen-2-yl)prop-2-enamide]	90.6186
